Hit rate of the full screen: of about 370,000 compounds, about 500 (0.14%) were called active. Inconclusive means that the source gave no clear call. Such entries were picked first, then a sample of the others. Calls follow the shape of the dose curve; as a rule, active = well fitted activation curve with a large enough effect; inconclusive = small, poorly fitted or top-dose-only effect; inactive = no such curve, though single readings can be large or run the other way. Potencies of inconclusive entries are left out as doubtful fits.
Experiment: qHTS of alpha-syn Inhibitors; also: nearly all actives have a fitted effect of over 65% in size; as to growth rescue (activation): % of control where 0% means no effect
Settings: Yeast expressing alpha-synuclein, BacTiter-Glo, 24 h; Potency: growth rescue unless noted; growth rescue (activation): at 46.1 µM (top of the series) unless noted
Method in brief: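 Screening used galactose-induced yeast with toxic alpha-synuclein levels, exposed to compound for 24 hr at 30 deg C. Cell growth, read with BacTiter-Glo luminescence, gave the measured signal.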
Potency is read from the fitted curve at half-maximal effect; tags tell the direction and shape of the fitted curve.

Row | SMILES | Potency | growth rescue (activation)
1 | Nc1nc(SCC(=O)NCc2ccc(F)cc2)[nH]c(=O)c1NC(=O)c1ccc(Cl)cc1 | inconclusive [activator, single point] | –
2 | CC(C)C1C(=O)N(Cc2cn(CCC3OCCO3)nn2)CCS(=O)(=O)N1Cc1ccc(-c2ccc(Cl)c(Cl)c2)cc1 (stereo unspecified) | inconclusive [activator, single point] | –
3 | COc1cccc(-c2cc(C(=O)Nc3ccncc3)c3ccccc3n2)c1 | – | inactive: 0.33%
4 | CCSc1ncc(Cl)c(C(=O)N(Cc2ccc(N(C)C)cc2)C2CCS(=O)(=O)C2)n1 (stereo unspecified) | inconclusive [activator, single point] | –
5 | Cc1ccc(NC(=O)C2(C)CCN2C(=O)Cc2ccc(C(C)C)cc2)cc1 (stereo unspecified) | inconclusive [activator, single point] | –
6 | CCN(CC)C(=O)[C@H]1C[C@H](CC(=O)NCc2cccc(C(F)(F)F)c2)C(=O)N2CCc3c([nH]c4ccc(Cl)cc34)[C@]12C | inconclusive [activator, single point] | –
7 | Cc1ccccc1OCC(=O)NCC(=O)OCC(=O)c1ccc([N+](=O)[O-])cc1 | inconclusive [activator, single point] | –
8 | COC(=O)c1ccccc1NC(=O)CN1CCN(C(=O)c2ccco2)CC1 | inconclusive [activator, single point] | –
9 | CCc1ccccc1Oc1nc(NC(C)C)nc2ccsc12 | – | inactive: -16.3%
10 | O=C(O)c1ccc(C=NN=C2c3ccccc3-c3ccccc32)cc1 | inconclusive [activator, single point] | –
11 | O=C(CSc1ccc2c(c1)OCCO2)NCCc1ccc(Cl)cc1Cl | inconclusive [activator, partial curve] | –
12 | CC1(Cc2ccc(Cl)c(Cl)c2)C(=O)Nc2c(Cl)ccc(Cl)c21 (stereo unspecified) | inconclusive [activator, single point] | –
13 | O=C(O)c1ccc(N2C(=O)c3cccc(Oc4ccc(Cl)cc4)c3C2=O)cc1 | inconclusive [activator, single point] | –
14 | Cc1cc(C)c(Cn2c3ccccc3c3cnn(CC(=O)NCc4ccccn4)c(=O)c32)c(C)c1 | – | inactive: 1.66%
15 | CCC(=O)CN(Cc1cc(OC)ccc1OC)S(=O)(=O)c1ccccc1Br | inconclusive [activator, single point] | –
16 | COC(=O)c1ccc(CSc2nnc3nc(C)cc(C)n23)cc1 | inconclusive [activator, single point] | –
17 | CC(CC(=O)O)CC(=O)Nc1ccccc1C(=O)O (stereo unspecified) | inconclusive [activator, single point] | –
18 | Nc1ccc2c(c1)C(=NO)c1cc([N+](=O)[O-])ccc1-2 | active: 6.31 µM | –
19 | O=C(O)CCC1OC(=O)C(O)=C1c1ccccc1 (stereo unspecified) | – | inactive: 1.5%
20 | Cc1ccc(-c2cc(-c3ccc4c(c3)OCO4)c(C#N)c(N)n2)o1 | – | inactive: 8.37%
21 | CC1(C(=O)NCc2ccc(C(F)(F)F)cc2)CCN1Cc1ccccc1OC(F)F (stereo unspecified) | inconclusive [activator, single point] | –
22 | COc1cc(NC(=O)CC(c2ccc(C)cc2)N2Cc3ccccc3C2=O)cc(OC)c1 (stereo unspecified) | inconclusive [activator, single point] | –

Row | SMILES | Potency | growth rescue (activation)
23 | O=c1[nH]c2ccccc2c2nc3ccccn3c12 | inconclusive [activator, single point] | –
24 | O=c1nccc(NCc2ccco2)[nH]1 | inactive | –
25 | O=C(CN1/C(=C(/O)c2ccccc2)C(=O)c2ccccc2S1(=O)=O)c1ccccc1 | inconclusive [activator, single point] | –
26 | Cc1cc(Cl)ccc1OCC(=O)NNC(=O)c1cnccn1 | inconclusive [activator, single point] | –
27 | CN1C[C@@H]2[C@@H]3C(=O)N(Cc4ccccc4)C(=O)[C@@H]3[C@](Cc3ccccc3)(C1=O)N2C(=O)c1ccc(Cl)c(Cl)c1 | – | inactive: 2.02%
28 | Cc1ccc(NC(=O)CN2CCCC2c2cccn2C)c(Br)c1 (stereo unspecified) | inconclusive [activator, single point] | –
29 | Cc1ccc(N(C)C(=O)Cn2cnc3onc(-c4ccc(F)cc4)c3c2=O)cc1C | inconclusive [activator, single point] | –
30 | O=C(CNc1ccccc1-c1ccccc1)NCc1ccccc1 | – | inactive: 6.45%
31 | COc1cc(OC)cc(C(=O)Nc2sc3c(c2C(N)=O)CCC3)c1 | active: 3.55 µM | –
32 | COc1ccc(CCNC(=S)Nc2cccc(C)c2C)cc1 | inconclusive [activator, single point] | –
33 | Cc1cc(-c2c(C)[nH]n(-c3ccc(Cl)cc3)c2=O)n[nH]1 | inconclusive [activator, single point] | –
34 | COc1ccc(N=c2sc3ccccc3n2C)cc1 | inconclusive [activator, single point] | –
35 | CCOc1ccccc1NC(=O)COc1cccnc1[N+](=O)[O-] | inconclusive [activator, single point] | –
36 | O=C(CSc1ncnc2c1oc1ccccc12)NCc1ccco1 | inconclusive [activator, partial curve] | –
37 | FC(F)(F)c1ccccc1Cc1c(-c2ccc(Cl)cc2)nc2c3ccccc3ccn12 | inconclusive [activator, single point] | –
38 | COc1ccc(-c2nc3ccc(C)cn3c2Cc2ccccc2)cc1OC | inconclusive [activator, single point] | –
39 | CC(=O)O[C@]1(C(C)=O)CCC2C3CCC4=C/C(=N/OCC(=O)O)CC[C@]4(C)C3CC[C@@]21C (stereo partly specified) | inconclusive [activator, partial curve, poor fit] | –
40 | CCCCCCCCOc1ccc(C2OC34CCCCC3C(C#N)(C#N)C2(C#N)C(=N)O4)cc1 (stereo unspecified) | – | inactive: 15.5%
41 | CC1=C/C(=C\c2ccc(N(C)C)cc2)c2ccccc21 | inconclusive [activator, single point] | –
42 | Cc1cc(C)c(S(=O)(=O)NCCc2ccccc2)c(C)c1 | active: 20 µM | –
43 | Cc1ccc(-c2ccc(CN3C(C(C)C)C(=O)N(Cc4cn(CCC5OCCCO5)nn4)CCS3(=O)=O)cc2)cc1 (stereo unspecified) | inconclusive [activator, single point] | –
44 | Cc1ccn(C(=O)c2cc3cc(Cl)ccc3oc2=O)n1 | inconclusive [activator, single point] | –

Row | SMILES | Potency | growth rescue (activation)
45 | N/C(=N\OC(=O)c1cccc(Cl)c1)c1ccccn1 | – | inactive: -12.8%
46 | CCC(=O)NC(=S)Nc1cccc(NC(=O)c2ccccc2Cl)c1 | – | inactive: -2.02%
47 | CC1CCN(S(=O)(=O)c2ccc3c(c2)N(CC(=O)N2CCN(c4ccccc4)CC2)C(=O)CO3)CC1 | inconclusive [activator, single point] | –
48 | CC(=O)OCC1(C)CN(c2ccccc2)N(C(C)=O)C1=O (stereo unspecified) | inconclusive [activator, single point] | –
49 | O=C(Nc1cccc(O)c1)c1cccc(S(=O)(=O)N2CCCCCC2)c1 | inconclusive [activator, single point] | –
50 | CCOc1ccc2c(c1)C(C)=CC(C)(C)N2S(=O)(=O)c1ccc(C)cc1 | inconclusive [activator, single point] | –
51 | COCC(=O)N1C[C@@H](C)[C@@H](OC)CN(C)C(=O)c2ccc(NC(=O)c3cnccn3)cc2OC[C@H]1C | inconclusive [activator, single point] | –
52 | CCc1nc2ccc(C(=O)N(C)C(C)C)cn2c1N(CCC(C)C)CCN(C)C | inconclusive [activator, single point] | –
53 | N#C/C(=C\c1cccs1)C(=O)NCc1cccnc1 | inconclusive [activator, single point] | –
54 | O=C(O)c1cc([N+](=O)[O-])ccc1NCCCc1ccccc1 | inactive | –
55 | C[C@H](NC(=O)c1ncn2c1C(=O)N[C@@H](C)C2)c1ccccc1 | inconclusive [activator, single point] | –
56 | O=C(Oc1oc(-c2ccco2)nc1C=Nc1ccccc1)c1ccoc1 | inconclusive [activator, full curve] | –
57 | Cc1noc(C)c1C(=O)N1CCC1(C)C(=O)NS(=O)(=O)c1ccc(Br)cc1 (stereo unspecified) | – | inactive: -2.7%
58 | NC(N)=NCCCC(NC(=O)c1ccccc1)C(=O)Nc1ccc([N+](=O)[O-])cc1 (stereo unspecified) | inconclusive [activator, single point] | –
59 | CC(=O)N1CCN(C(=O)c2ccc3c(c2)OCCO3)CC1 | inconclusive [activator, single point] | –
60 | COc1ccc(Cn2c(=O)sc3ccccc32)cc1OC | inconclusive [activator, single point] | –
61 | COc1cc(S(=O)(=O)Nc2cccc(C)c2)ccc1NC(=O)c1cccnc1 | inconclusive [activator, single point] | –
62 | O=C1CSC2(N1)C1CC3CC(C1)CC2C3 (stereo unspecified) | inconclusive [activator, single point] | –
63 | C=C1C=C(C)n2ncc(C(=O)Nc3ccccc3C(=O)OC)c2N1 | inconclusive [activator, single point] | –
64 | S=C1NCCc2ccc(Cl)cc2C1c1ccccc1Cl (stereo unspecified) | inconclusive [activator, single point] | –
65 | CN(C)S(=O)(=O)c1ccc(N2CCN(S(=O)(=O)c3ccc(F)cc3)CC2)c(Cl)c1 | inconclusive [activator, single point] | –
66 | Fc1ccc(-c2nc3ccc(Cl)cn3c2Cc2ccccc2C(F)(F)F)cc1 | inconclusive [activator, single point] | –
